Source: PubChem BioAssay AID651687 (Broad Institute, 2012)
Among all 350,000 compounds or so, about 600 (0.17%) were called active. This list was built around the results that the source calls inconclusive (neither active nor inactive); the mix of calls is not that of the screen.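 The calls were made as follows: active = every replicate shows inhibition of at least 40%; inconclusive = mean inhibition at least 40% but some replicate below; inactive = the rest.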

Test: inhibitors of PGC1a acetylation signal, primary screen, cell-based, U2OS, AlphaScreen, inhibitor mode (AID 651687);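 also: 0% = neutral control wells and 100% = positive control wells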
Settings: AlphaScreen anti-acetyl-lysine, at 15.6 µM, hits give high values, with virally co-expressed GCN5 acetyltransferase

Row | Structure (SMILES) | inhibition
1 | Cc1nn(-c2ccccc2)c(C)c1C(=O)OCC(=O)Nc1ccc(C(N)=O)cc1 | inactive: -3.18%
2 | Cc1cccc(C(=O)O/N=C/c2c(Cl)n(C)c3ccccc23)c1 | inconclusive: -0.626%
3 | COc1cc(CNC(=O)c2cc(-c3cc(C)cc(F)c3)n[nH]2)cc(OC)c1 | inconclusive: 45.2%
4 | C[C@@H]1CN([C@H](C)CO)S(=O)(=O)c2ccc(C#C[C@@H](C)O)cc2O[C@H]1CN(C)CC1CCCC1 | inactive: -33.9%
5 | C/C=C/Cn1c(SCc2ccc(Cl)cc2)nc2c1c(=O)[nH]c(=O)n2C | inconclusive: 49.7%
6 | COc1ccc(NC(=O)N(C)C[C@H]2Oc3cc(-c4ccc(C)cc4)ccc3S(=O)(=O)N([C@H](C)CO)C[C@H]2C)cc1 | inactive: -3.89%
7 | CCOCCc1nn2c(=O)cc(CSCC(=O)Nc3cccc(C)c3C)nc2s1 | inconclusive: 38.7%
8 | O=C(Nc1ccc(F)cc1)N[C@H]1C=C[C@H](CC(=O)N2CCCCC2)O[C@H]1CO | inconclusive: 42.8%
9 | O=C(NCCc1c[nH]c2ccccc12)c1ccc2[nH]c(=O)c(=O)[nH]c2c1 | inactive: 1.6%
10 | COc1ccc(CCNc2ccc(C(CC(N)=O)NC(=O)c3cc(C)cc(C)c3)cc2[N+](=O)[O-])cc1 (stereo not drawn) | inconclusive: 46.4%
11 | COCCSc1ccccc1C(=O)Nc1cc(C)on1 | inconclusive: 50.7%
12 | Cc1noc(C)c1S(=O)(=O)N(C)C[C@H]1OCCCC[C@H](C)Oc2ccc(NC(=O)Cc3ccccc3)cc2C(=O)N([C@H](C)CO)C[C@@H]1C | inactive: -3.6%
13 | Cc1ccc(NC(=O)CC2=NC(=O)C(CC(=O)Nc3ccccc3F)S2)cc1 (stereo not drawn) | inconclusive: 49.7%
14 | CC1CCCN(Cc2c(O)ccc3c4c(c(=O)oc23)CCCC4)C1 (stereo not drawn) | inconclusive: 49.4%
15 | Cc1ccc(C(=O)N2CCN(c3ncccn3)CC2)cc1 | active: 79.9%
16 | CCCCC(O)(CCCC)C(=O)N/N=C(\C)c1ccc(Cl)cc1 | inconclusive: 43.7%
17 | CN(NC(=O)c1ccccc1)C1=NS(=O)(=O)c2ccccc21 | inconclusive: 40.1%
18 | COc1ccc(S(=O)(=O)N(C)C[C@H]2OCCCC[C@H](C)Oc3ccc(NS(=O)(=O)c4ccc(C)cc4)cc3C(=O)N([C@@H](C)CO)C[C@@H]2C)cc1 | inactive: -7.99%
19 | Cc1ccc2nsnc2c1NC(=O)c1ccc([N+](=O)[O-])o1 | inconclusive: 44%

Row | Structure (SMILES) | inhibition
20 | O=C1C=CCCN1C(=O)/C=C/c1ccccc1Cl | active: 73%
21 | CN1CCc2c(sc3c2c(NCc2ccco2)nc2nnnn23)C1 | inconclusive: 44.7%
22 | CO[C@H]1CN(C)C(=O)c2ccc(NC(=O)C3CCOCC3)cc2OC[C@@H](C)N(C(=O)c2ccccc2)C[C@@H]1C | inactive: 3.88%
23 | CO[C@@H]1CN(C)C(=O)c2ccc(NS(C)(=O)=O)cc2OC[C@@H](C)N(Cc2nccs2)C[C@@H]1C | inconclusive: 45.1%
24 | Cc1c(Cl)cnc(NC(=O)COC(=O)c2ccc3ncsc3c2)c1Cl | inactive: 7.58%
25 | COc1cc(OC)cc(C(=O)N[C@H](C(=O)OCC(=O)NC(=O)NC(C)(C)C)C(C)C)c1 | inconclusive: 43.5%
26 | COc1ccccc1N1C(=O)S/C(=C\c2ccc(C)s2)C1=O | inactive: 2.26%
27 | CCOc1ccc(NC(=O)NC2CCCCCCC2)cc1 | inactive: 8.09%
28 | C[C@@H]1CN([C@@H](C)CO)C(=O)c2cccc(NC(=O)Nc3ccccc3)c2O[C@H]1CN(C)S(=O)(=O)c1cccs1 | inconclusive: 54.4%
29 | COc1ccc(C2(NC(C)=O)CCN(C(=O)CCC(=O)O)CC2)cc1 | inconclusive: 49.5%
30 | Cc1ccc(O)c(/C=N/NC(=O)CN2CCCC2)c1 | active: 83.6%
31 | Cc1ccc(O)c(NC(=O)c2ccc3c(c2)C(=O)N(CC(C)C)C3=O)c1 | inconclusive: 44.1%
32 | CCOc1ccccc1CN1CCN(C2CCC2)CC1CCO (stereo not drawn) | active: 74.8%
33 | O=C(C[C@H]1CC[C@@H]2[C@H](COC[C@@H](O)CN2S(=O)(=O)c2ccc(F)cc2)O1)NCCN1CCCCC1 | inconclusive: 47.4%
34 | O=C1C=CCCN1S(=O)(=O)/C=C/c1ccccc1 | active: 58.7%
35 | COc1ccc(C(NC(=O)c2c(F)c(F)c(F)c(F)c2F)c2ccccc2)cc1 (stereo not drawn) | active: 84.6%
36 | Cc1c(CNCCc2ccc(Cl)cc2)c(C(=O)O)c(C)n1-c1ccccc1 | inconclusive: 40.7%
37 | CO[C@@H]1CN(C)C(=O)c2ccc(NC(=O)c3ccc(F)cc3)cc2OC[C@H](C)N(C(C)=O)C[C@@H]1C | inactive: 4.23%
38 | CS(=O)(=O)Nc1cccc(NC(=O)c2cccc3c(-c4cccnc4)coc23)c1 | inactive: 8.19%
